Test results reported in the supplement of paper PMC3334620.
Over roughly 33,000 sequences, “E-score (-0.5 to 0.5)” has its median near -0.021; the highest 2% begin near 0.32. This is one part of the list.

These sequences were tested against T1, Zap1 (UniProt P47043) (assay: PBM E-score (8-mer binding enrichment) (E-score (-0.5 to 0.5)); higher = stronger / more preferred TF binding; most listed sequences are background and not binding sites). Settings: protein concentration: 200 nM; construct: GST-full length.
T1 sequence: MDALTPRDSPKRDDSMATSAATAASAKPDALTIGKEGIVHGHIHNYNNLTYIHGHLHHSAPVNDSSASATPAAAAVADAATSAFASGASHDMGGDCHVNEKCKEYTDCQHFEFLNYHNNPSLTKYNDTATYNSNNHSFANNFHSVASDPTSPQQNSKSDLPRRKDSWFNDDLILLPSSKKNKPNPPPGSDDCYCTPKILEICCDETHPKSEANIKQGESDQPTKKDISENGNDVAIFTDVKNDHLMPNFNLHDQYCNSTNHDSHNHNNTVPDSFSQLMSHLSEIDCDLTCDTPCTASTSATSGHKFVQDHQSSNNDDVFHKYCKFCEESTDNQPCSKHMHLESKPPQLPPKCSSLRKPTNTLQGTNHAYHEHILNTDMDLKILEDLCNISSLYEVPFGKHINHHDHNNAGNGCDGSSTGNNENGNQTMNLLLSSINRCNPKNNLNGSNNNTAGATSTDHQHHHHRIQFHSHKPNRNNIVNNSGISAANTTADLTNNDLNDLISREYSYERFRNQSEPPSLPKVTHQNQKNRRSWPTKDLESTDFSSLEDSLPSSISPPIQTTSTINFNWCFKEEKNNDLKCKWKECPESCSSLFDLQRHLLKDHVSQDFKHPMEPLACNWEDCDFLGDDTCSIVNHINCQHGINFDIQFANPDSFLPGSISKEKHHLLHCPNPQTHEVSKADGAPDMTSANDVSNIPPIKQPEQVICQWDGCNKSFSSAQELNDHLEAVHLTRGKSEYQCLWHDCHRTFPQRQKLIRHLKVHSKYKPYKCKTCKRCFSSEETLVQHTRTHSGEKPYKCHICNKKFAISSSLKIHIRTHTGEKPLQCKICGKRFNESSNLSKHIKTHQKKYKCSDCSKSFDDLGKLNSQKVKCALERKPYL
Protocol: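 Universal 'all 10-mer' protein binding microarrays (Agilent AMADID 015681) probed with GST-tagged S. cerevisiae TFs (full-length or DBD) made by in vitro transcription/translation (PURExpress), about 100-200 nM. Bound TF was detected with fluorescent anti-GST. Each ungapped 8-mer (which stands for itself and its reverse complement) is scored by the PBM enrichment score (E-score), a modified Wilcoxon-Mann-Whitney statistic from -0.5 to +0.5, computed with the Universal PBM Analysis Suite. Scale: above 0.35 generally sequence-specific binding.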

| Sequence | PBM E-score |
| --- | --- |
| AGGTCGGC | 0.0206 |
| AGCCGCTG | -0.182 |
| ACCCGTGA | 0.247 |
| CACCTTCA | 0.0231 |
| ACCACACC | 0.192 |
| CTGCTAAC | -0.0957 |
| AAGGAGGT | 0.0856 |
| GGGACCCC | 0.0441 |
| ACCATCCC | 0.0577 |
| ACTCCAAA | 0.0435 |
| CTTCCCTA | -0.233 |
| AGTTGCCA | -0.0808 |
| CCTGTCGA | -0.184 |
| CTGGTAAC | 0.255 |
| AAAATGAG | -0.078 |
| CACTGTGC | -0.0154 |
| CACAGGGG | 0.00685 |
| AATGACGG | 0.173 |
| TGCGAACA | 0.0594 |
| ATCGCTAG | -0.0377 |
| GGGGAAGA | -0.0556 |
| CTTAAAAC | 0.234 |

| Sequence | PBM E-score |
| --- | --- |
| CGCCGGCG | 0.0909 |
| CGCTAGAC | -0.201 |
| CATTAAAG | 0.152 |
| AATCGGGT | 0.311 |
| ACAACACC | 0.0341 |
| GAAATAGA | 0.113 |
| GGCCCCCC | -0.179 |
| GTCTCGCA | -0.168 |
| GAAGTACC | 0.153 |
| CAGTCGTA | -0.0677 |
| CTTCTACC | -0.0853 |
| CCGATGTA | -0.0828 |
| ATAGCCAC | -0.0328 |
| ACATAGGC | -0.103 |
| CCTCCGCG | 0.0795 |
| AGACCGTC | -0.0261 |
| TATAGAAA | 0.175 |
| AAAGTACC | 0.273 |
| AATATCAG | -0.0392 |
| ACTATAGT | 0.197 |
| GTTCGCAA | 0.142 |
| CTGCGGCC | -0.141 |

| Sequence | PBM E-score |
| --- | --- |
| CTGCGGGC | -0.0989 |
| CTGAAATA | 0.0704 |
| AACCTTCC | 0.21 |
| GCGTCACC | -0.0628 |
| CAGAAACG | 0.0804 |
| ATCGAAAA | 0.073 |
| AAAGTTTA | 0.144 |
| TAATTACA | 0.177 |
| CGGGCGCA | -0.109 |
| GATGAAAC | 0.0977 |
| ACCATACG | -0.0138 |
| AGCGAATG | -0.275 |
| AGCGGGGC | -0.162 |
| AAGGCCTG | -0.218 |
| GGTTTACA | 0.17 |
| AGTAACGC | 0.0343 |
| AAACATGC | 0.158 |
| ATTAGCTG | -0.0371 |
| ATCCAAAA | 0.188 |
| GCTTCAGA | -0.167 |
| GAACTAGC | -0.0962 |
| CTCATGAG | 0.111 |

| Sequence | PBM E-score |
| --- | --- |
| CCATAAGA | 0.0547 |
| AACGTTTC | -0.0689 |
| CAGTAAAG | 0.105 |
| GGTAGTGA | 0.29 |
| CGCAGAAA | -0.025 |
| GGACGACA | 0.0683 |
| ATTGGCCC | -0.0946 |
| CCGCGGAC | -0.0519 |
| CACCAGCG | -0.23 |
| ATACTACA | 0.18 |
| AACTTAAA | 0.107 |
| AATGAGAG | -0.104 |
| AACACTGT | -0.00483 |
| GACGGAAA | 0.0423 |
| CTTGCCCA | -0.169 |
| AGTCAGTG | -0.124 |
| AGGAAACC | 0.272 |
| ACACGGGG | -0.118 |
| AGCAGCCT | -0.168 |
| AAATTTCG | -0.0634 |
